Test results published in publication PMC7933334, “The methyltransferase SETD2 couples transcription and splicing by engaging mRNA processing factors through its SHI domain” (Nature Communications, 2021).
Results are given in words; binding and its absence hold for the method and conditions named. In cells and extracts the contact can be indirect. Some results given as binding are weak or reduced against the parent protein; the word gives no strength. Tags and fused reporters may be left off the sequences shown.

T1: Halo-SETD2 1404–2564 (SETD2C) (human) (UniProt Q9BYW2)
T1 sequence: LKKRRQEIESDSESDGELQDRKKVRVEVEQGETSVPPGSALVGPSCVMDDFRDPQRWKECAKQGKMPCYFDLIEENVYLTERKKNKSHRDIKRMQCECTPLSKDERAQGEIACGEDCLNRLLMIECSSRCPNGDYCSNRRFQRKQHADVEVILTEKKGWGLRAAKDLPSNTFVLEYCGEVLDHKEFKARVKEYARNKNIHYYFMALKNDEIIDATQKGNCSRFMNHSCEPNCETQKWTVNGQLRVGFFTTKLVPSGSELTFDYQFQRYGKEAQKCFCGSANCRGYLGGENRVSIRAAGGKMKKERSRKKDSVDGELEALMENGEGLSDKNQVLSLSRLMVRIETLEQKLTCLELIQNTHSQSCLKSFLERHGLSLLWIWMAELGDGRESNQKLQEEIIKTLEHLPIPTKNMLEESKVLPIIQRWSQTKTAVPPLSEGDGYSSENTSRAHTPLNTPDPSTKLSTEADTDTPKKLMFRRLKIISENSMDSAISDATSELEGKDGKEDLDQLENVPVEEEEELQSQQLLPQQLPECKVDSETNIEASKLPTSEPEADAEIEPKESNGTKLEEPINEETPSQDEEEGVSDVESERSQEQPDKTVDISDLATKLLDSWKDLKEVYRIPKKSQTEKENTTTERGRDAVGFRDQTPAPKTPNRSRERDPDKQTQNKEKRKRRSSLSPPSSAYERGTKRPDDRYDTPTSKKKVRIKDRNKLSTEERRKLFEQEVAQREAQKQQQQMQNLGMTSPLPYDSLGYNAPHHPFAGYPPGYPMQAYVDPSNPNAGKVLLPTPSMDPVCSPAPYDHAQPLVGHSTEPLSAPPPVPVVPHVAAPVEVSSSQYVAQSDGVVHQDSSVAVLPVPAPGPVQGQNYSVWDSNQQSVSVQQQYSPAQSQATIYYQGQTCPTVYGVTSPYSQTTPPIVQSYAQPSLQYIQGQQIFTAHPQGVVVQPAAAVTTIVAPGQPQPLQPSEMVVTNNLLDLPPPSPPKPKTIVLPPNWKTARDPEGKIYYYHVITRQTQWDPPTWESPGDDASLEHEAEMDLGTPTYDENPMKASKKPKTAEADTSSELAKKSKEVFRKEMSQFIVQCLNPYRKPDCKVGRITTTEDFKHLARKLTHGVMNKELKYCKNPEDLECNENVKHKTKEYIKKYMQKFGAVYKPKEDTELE

B1: mCherry-HA-hnRNP L 189–293 (domain or fragment, UniProt P14866 189-293)
chain: RSVNSVLLFTILNPIYSITTDVLYTICNPCGPVQRIVIFRKNGVQAMVEFDSVQSAQRAKASLNGADIYSGCCTLKIEYAKPTRLNVFKNDQDTWDYTNPNLSGQ
B2: mCherry-HA-hnRNP L 1–95 (domain or fragment, UniProt P14866 1-95)
chain: MSRRLLPRAEKRRRRLEQRQQPDEQRRRSGAMVKMAAAGGGGGGGRYYGGGSEGGRAPKRLKTDNAGDQHGGGGGGGGGAGAAGGGGGGENYDDP
B3: mCherry-HA-hnRNP L 162–321 (domain or fragment, UniProt P14866 162-321)
chain: IYIAGHPAFVNYSTSQKISRPGDSDDSRSVNSVLLFTILNPIYSITTDVLYTICNPCGPVQRIVIFRKNGVQAMVEFDSVQSAQRAKASLNGADIYSGCCTLKIEYAKPTRLNVFKNDQDTWDYTNPNLSGQGDPGSNPNKRQRQPPLLGDHPAEYGGPH
B4: mCherry-HA-hnRNP L (1–589) (protein, UniProt P14866 1-589)
chain: MSRRLLPRAEKRRRRLEQRQQPDEQRRRSGAMVKMAAAGGGGGGGRYYGGGSEGGRAPKRLKTDNAGDQHGGGGGGGGGAGAAGGGGGGENYDDPHKTPASPVVHIRGLIDGVVEADLVEALQEFGPISYVVVMPKKRQALVEFEDVLGACNAVNYAADNQIYIAGHPAFVNYSTSQKISRPGDSDDSRSVNSVLLFTILNPIYSITTDVLYTICNPCGPVQRIVIFRKNGVQAMVEFDSVQSAQRAKASLNGADIYSGCCTLKIEYAKPTRLNVFKNDQDTWDYTNPNLSGQGDPGSNPNKRQRQPPLLGDHPAEYGGPHGGYHSHYHDEGYGPPPPHYEGRRMGPPVGGHRRGPSRYGPQYGHPPPPPPPPEYGPHADSPVLMVYGLDQSKMNCDRVFNVFCLYGNVEKVKFMKSKPGAAMVEMADGYAVDRAITHLNNNFMFGQKLNVCVSKQPAIMPGQSYGLEDGSCSYKDFSESRNNRFSTPEQAAKNRIQHPSNVLHFFNAPLEVTEENFFEICDELGVKRPSSVKVFSGKSERSSSGLLEWESKSDALETLGFLNHYQMKNPNGPYPYTLKLCFSTAQHAS
B5: mCherry-HA-hnRNP L 1–321 (domain or fragment, UniProt P14866 1-321)
chain: MSRRLLPRAEKRRRRLEQRQQPDEQRRRSGAMVKMAAAGGGGGGGRYYGGGSEGGRAPKRLKTDNAGDQHGGGGGGGGGAGAAGGGGGGENYDDPHKTPASPVVHIRGLIDGVVEADLVEALQEFGPISYVVVMPKKRQALVEFEDVLGACNAVNYAADNQIYIAGHPAFVNYSTSQKISRPGDSDDSRSVNSVLLFTILNPIYSITTDVLYTICNPCGPVQRIVIFRKNGVQAMVEFDSVQSAQRAKASLNGADIYSGCCTLKIEYAKPTRLNVFKNDQDTWDYTNPNLSGQGDPGSNPNKRQRQPPLLGDHPAEYGGPH
B6: mCherry-HA-hnRNP L 322–589 (domain or fragment, UniProt P14866 322-589)
chain: GGYHSHYHDEGYGPPPPHYEGRRMGPPVGGHRRGPSRYGPQYGHPPPPPPPPEYGPHADSPVLMVYGLDQSKMNCDRVFNVFCLYGNVEKVKFMKSKPGAAMVEMADGYAVDRAITHLNNNFMFGQKLNVCVSKQPAIMPGQSYGLEDGSCSYKDFSESRNNRFSTPEQAAKNRIQHPSNVLHFFNAPLEVTEENFFEICDELGVKRPSSVKVFSGKSERSSSGLLEWESKSDALETLGFLNHYQMKNPNGPYPYTLKLCFSTAQHAS
B7: mCherry-HA-hnRNP L 96–161 (domain or fragment, UniProt P14866 96-161)
chain: HKTPASPVVHIRGLIDGVVEADLVEALQEFGPISYVVVMPKKRQALVEFEDVLGACNAVNYAADNQ
B8: mCherry-HA-hnRNP L 1–161 (domain or fragment, UniProt P14866 1-161)
chain: MSRRLLPRAEKRRRRLEQRQQPDEQRRRSGAMVKMAAAGGGGGGGRYYGGGSEGGRAPKRLKTDNAGDQHGGGGGGGGGAGAAGGGGGGENYDDPHKTPASPVVHIRGLIDGVVEADLVEALQEFGPISYVVVMPKKRQALVEFEDVLGACNAVNYAADNQ

These binders were tested against T1, Halo-SETD2 1404–2564 (SETD2C) (human) (assay: co-IP; Halo affinity purification from extracts of 293T cells co-expressing Halo-SETD2C and mCherry-HA-hnRNP L constructs; western blot with anti-HA; no RNase treatment).

binding	Binder
binds	B1
no binding	B2
binds	B3
binds	B4
binds	B5
no binding	B6
no binding	B7
no binding	B8
